The record followed here is PMC5460038.

The chains behind the UniProt entries cited, without tags or fusion partners.
UniProt Q5MNZ6: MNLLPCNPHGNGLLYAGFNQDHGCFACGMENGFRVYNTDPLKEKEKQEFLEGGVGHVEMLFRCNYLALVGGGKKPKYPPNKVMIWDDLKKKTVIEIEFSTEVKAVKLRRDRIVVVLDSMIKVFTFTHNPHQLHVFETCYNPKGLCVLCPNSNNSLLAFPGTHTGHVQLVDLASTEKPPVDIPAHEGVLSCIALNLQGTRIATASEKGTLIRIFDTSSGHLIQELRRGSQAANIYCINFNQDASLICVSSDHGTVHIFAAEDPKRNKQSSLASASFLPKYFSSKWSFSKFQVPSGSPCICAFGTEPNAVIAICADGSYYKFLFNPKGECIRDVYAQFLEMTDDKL
UniProt Q2TAZ0: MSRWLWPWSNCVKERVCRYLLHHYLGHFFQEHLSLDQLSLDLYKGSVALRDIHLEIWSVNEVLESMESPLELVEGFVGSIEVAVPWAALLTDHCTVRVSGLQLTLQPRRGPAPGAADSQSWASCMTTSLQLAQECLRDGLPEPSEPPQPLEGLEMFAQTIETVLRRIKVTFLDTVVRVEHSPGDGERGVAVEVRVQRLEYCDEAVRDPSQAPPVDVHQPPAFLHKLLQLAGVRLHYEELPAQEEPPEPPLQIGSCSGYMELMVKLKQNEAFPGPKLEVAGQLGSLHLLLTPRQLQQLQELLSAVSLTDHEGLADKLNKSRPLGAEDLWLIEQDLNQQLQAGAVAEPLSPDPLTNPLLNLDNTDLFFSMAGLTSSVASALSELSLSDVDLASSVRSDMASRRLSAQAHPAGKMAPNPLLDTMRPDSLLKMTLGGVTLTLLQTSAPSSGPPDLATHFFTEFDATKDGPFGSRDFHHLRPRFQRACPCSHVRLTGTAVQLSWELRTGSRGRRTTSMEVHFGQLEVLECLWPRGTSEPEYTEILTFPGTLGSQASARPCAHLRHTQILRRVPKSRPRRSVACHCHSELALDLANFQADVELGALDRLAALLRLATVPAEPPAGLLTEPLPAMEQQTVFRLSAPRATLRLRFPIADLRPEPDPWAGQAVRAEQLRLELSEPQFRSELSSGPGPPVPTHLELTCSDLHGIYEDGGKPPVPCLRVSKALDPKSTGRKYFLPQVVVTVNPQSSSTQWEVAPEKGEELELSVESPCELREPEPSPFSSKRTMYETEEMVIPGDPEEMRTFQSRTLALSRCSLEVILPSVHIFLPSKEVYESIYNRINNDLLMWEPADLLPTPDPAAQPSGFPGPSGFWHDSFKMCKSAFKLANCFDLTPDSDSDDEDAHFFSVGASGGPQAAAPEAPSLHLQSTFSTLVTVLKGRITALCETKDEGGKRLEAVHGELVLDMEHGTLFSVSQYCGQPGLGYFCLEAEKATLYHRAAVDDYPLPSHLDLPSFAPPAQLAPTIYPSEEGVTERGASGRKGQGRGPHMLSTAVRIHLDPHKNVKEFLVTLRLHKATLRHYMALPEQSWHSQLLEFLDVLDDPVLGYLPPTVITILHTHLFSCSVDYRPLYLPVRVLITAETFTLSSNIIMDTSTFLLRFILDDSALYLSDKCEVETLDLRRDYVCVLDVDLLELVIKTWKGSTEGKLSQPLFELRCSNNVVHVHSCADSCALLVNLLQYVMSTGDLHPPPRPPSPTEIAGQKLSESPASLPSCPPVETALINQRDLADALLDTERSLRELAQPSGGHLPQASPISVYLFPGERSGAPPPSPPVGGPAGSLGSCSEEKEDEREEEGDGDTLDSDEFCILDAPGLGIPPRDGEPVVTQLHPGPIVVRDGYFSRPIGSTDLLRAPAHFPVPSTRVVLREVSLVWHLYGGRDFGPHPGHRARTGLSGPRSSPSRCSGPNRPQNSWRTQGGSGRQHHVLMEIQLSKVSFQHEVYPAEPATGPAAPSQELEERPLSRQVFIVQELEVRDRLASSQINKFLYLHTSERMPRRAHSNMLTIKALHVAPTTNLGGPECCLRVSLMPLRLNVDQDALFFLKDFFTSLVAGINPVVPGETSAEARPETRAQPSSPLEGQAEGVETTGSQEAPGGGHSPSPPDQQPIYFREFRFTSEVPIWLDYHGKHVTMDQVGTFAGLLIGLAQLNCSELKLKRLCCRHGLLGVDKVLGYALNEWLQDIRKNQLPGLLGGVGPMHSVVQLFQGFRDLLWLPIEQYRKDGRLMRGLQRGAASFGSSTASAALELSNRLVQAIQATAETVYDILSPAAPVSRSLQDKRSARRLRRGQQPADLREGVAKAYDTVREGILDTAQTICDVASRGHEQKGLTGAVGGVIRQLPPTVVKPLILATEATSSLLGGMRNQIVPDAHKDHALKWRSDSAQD
UniProt P54619: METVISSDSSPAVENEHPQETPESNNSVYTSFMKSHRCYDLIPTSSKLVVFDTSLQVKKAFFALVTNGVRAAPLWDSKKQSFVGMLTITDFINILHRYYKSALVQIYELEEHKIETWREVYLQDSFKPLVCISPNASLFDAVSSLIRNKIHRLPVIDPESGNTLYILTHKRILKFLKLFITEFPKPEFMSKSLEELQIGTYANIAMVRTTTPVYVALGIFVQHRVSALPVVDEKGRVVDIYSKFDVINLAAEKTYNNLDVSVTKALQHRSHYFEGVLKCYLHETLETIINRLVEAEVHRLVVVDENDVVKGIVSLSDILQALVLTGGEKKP
UniProt Q9ESK9: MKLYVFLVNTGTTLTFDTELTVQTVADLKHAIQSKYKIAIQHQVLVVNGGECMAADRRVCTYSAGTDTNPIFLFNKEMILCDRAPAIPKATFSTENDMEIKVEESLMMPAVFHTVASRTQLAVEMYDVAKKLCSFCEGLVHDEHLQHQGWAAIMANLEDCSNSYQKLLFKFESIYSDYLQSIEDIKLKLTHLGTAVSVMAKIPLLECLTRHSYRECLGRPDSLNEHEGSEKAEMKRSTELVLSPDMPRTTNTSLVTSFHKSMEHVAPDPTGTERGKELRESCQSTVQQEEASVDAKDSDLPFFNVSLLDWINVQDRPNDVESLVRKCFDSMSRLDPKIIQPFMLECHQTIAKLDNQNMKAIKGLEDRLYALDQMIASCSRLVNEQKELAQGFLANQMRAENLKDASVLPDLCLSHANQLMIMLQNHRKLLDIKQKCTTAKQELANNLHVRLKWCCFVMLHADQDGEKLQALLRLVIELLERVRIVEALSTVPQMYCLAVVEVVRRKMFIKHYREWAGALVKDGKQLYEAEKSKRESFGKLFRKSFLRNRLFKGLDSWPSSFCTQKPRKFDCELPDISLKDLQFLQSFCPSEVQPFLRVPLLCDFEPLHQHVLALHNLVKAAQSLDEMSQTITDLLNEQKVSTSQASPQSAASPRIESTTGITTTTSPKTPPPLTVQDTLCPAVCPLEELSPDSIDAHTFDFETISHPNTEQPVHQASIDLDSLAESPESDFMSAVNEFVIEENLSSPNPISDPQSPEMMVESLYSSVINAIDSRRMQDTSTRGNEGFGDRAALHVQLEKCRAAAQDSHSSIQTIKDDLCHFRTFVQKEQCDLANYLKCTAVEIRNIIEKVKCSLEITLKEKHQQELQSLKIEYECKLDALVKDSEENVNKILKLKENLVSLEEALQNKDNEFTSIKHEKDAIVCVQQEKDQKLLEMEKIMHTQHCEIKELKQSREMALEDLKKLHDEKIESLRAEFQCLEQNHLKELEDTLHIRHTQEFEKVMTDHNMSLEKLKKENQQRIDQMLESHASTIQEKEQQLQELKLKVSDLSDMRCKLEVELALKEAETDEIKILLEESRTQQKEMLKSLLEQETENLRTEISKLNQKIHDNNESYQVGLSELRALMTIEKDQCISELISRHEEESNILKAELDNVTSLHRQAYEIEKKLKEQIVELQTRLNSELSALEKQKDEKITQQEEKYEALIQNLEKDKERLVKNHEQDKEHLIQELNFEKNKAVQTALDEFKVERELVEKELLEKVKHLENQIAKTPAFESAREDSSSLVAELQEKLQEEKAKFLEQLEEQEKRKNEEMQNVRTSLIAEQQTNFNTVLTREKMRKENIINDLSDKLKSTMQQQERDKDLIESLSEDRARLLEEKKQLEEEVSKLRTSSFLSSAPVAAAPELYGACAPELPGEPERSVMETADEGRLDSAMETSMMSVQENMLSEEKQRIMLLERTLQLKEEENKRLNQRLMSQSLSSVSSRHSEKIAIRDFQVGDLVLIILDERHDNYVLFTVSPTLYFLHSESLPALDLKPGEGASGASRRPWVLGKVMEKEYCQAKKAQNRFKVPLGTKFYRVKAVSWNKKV
UniProt Q61037: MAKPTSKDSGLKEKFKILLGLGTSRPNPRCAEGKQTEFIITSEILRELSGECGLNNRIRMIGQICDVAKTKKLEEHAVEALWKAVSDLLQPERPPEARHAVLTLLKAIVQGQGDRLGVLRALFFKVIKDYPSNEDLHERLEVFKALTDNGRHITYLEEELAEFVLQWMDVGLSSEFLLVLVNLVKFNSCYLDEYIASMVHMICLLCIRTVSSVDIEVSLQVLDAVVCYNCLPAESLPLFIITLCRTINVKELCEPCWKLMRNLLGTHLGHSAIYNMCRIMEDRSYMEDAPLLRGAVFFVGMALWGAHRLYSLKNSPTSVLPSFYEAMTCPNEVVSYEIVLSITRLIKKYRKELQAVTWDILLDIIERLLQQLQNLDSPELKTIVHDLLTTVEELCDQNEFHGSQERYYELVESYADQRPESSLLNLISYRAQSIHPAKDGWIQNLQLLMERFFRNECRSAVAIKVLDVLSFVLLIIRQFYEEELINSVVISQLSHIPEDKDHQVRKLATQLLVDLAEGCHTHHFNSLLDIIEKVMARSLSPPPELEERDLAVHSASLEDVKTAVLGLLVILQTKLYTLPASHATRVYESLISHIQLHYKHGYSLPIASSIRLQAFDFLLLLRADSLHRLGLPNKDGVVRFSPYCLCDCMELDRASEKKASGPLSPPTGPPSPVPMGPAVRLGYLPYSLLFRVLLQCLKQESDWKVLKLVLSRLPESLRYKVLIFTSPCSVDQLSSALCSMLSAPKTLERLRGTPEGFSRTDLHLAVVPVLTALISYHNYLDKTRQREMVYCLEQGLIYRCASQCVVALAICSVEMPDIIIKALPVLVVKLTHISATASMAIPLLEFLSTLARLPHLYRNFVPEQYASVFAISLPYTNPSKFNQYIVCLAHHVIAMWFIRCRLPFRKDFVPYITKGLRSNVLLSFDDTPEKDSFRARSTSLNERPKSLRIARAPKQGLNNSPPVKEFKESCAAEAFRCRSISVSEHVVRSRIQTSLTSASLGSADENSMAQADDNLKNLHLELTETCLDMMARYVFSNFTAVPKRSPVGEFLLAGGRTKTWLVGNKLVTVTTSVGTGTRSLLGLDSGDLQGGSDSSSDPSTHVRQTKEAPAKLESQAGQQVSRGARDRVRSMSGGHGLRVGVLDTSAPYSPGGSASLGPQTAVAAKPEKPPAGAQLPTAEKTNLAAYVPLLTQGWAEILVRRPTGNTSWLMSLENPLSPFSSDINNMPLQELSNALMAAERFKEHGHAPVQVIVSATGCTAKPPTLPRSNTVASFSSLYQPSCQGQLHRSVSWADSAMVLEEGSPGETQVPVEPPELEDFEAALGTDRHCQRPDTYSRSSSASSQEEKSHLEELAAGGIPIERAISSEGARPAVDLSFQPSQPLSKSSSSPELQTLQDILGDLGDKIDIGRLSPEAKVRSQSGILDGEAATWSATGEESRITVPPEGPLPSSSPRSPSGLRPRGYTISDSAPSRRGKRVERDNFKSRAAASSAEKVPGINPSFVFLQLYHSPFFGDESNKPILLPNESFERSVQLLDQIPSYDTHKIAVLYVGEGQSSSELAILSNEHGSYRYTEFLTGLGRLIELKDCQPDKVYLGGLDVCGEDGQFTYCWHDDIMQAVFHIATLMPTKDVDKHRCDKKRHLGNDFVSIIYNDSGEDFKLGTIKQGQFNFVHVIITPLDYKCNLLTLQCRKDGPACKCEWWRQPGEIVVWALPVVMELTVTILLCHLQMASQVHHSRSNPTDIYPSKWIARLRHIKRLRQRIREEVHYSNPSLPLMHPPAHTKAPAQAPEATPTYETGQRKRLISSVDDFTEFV

Results are given in words; binding and its absence hold for the method and conditions named. Binding seen in cells or lysates may run through a third protein. Some results given as binding are weak or reduced against the parent protein; the word gives no strength. For some assays here: Sequences can lack the tags named with a protein.

The target of test [1] is T1, GFP-WIPI4 (human) (UniProt Q9Y484).
T1 sequence: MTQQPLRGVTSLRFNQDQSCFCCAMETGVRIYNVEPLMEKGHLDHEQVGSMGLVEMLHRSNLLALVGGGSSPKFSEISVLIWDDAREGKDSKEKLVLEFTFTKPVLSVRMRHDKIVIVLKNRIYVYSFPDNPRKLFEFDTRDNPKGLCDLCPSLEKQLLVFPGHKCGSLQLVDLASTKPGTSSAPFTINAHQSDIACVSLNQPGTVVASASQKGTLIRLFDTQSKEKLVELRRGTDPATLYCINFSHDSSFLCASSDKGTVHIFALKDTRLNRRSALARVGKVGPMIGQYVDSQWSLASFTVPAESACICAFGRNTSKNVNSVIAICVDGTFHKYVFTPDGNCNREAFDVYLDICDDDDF
The experiment in a line: co-IP; U2OS expressing GFP or GFP-WIPI4 with myc-tagged AMPKα1, α2, β1 or γ1, fed conditions; anti-GFP immunoprecipitation, anti-myc immunoblotting.

The target in test [2] is GFP-WIPI3 expressed in mouse embryonic fibroblasts (human) (UniProt Q5MNZ6). The experiment in a line: co-IP; MEFs transiently expressing GFP-WIPI3 or GFP, fed or starved 3 h; anti-GFP immunoprecipitation, anti-FIP200 immunoblotting.
The target is the same in test [3]. The experiment in a line: co-IP; ATG5 WT or KO MEFs expressing GFP-WIPI3 or GFP, fed or starved 3 h; anti-GFP immunoprecipitation, anti-TSC1 and anti-TSC2 immunoblotting.
In test [4] the target is T1, GFP-WIPI4 (human). The experiment in a line: co-IP; U2OS expressing myc-ATG2A and GFP, GFP-WIPI4 WT or GFP-WIPI4 mutants; anti-GFP immunoprecipitation, anti-myc immunoblotting.
Test [5] addresses T2, GFP-WIPI4-R232A/R233A (human) (UniProt Q9Y484).
T2 sequence: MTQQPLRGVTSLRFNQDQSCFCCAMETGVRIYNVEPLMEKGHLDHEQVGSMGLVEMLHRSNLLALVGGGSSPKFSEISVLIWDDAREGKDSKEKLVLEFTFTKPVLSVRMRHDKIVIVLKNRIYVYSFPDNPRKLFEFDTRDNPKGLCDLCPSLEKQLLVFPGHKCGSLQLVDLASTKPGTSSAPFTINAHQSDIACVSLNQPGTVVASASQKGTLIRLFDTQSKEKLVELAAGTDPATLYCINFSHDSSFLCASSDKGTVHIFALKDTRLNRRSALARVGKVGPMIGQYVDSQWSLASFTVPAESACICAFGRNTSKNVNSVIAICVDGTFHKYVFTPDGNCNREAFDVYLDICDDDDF
The test is described as above.

In test [6] the target is T1, GFP-WIPI4 (human). The experiment in a line: co-IP; stable GFP-WIPI4 or GFP U2OS cells expressing myc-ATG2A; fed, starved 3 h, starved with AICAR, without glucose or without glucose/glutamine; anti-GFP immunoprecipitation, anti-myc, anti-AMPKα, anti-Ulk1 immunoblotting.
In test [7] the target is GFP-WIPI3 (human) (UniProt Q5MNZ6). The experiment in a line: co-IP; stable GFP-WIPI U2OS cells; fed, starved (15 min to 3 h) or starved with LY294002; anti-GFP immunoprecipitation, anti-TSC2, anti-phospho-TSC2 (S1387), anti-TSC1 immunoblotting.
For test [8], the target named is T3, GFP-WIPI1 (human) (UniProt Q5MNZ9).
T3 sequence: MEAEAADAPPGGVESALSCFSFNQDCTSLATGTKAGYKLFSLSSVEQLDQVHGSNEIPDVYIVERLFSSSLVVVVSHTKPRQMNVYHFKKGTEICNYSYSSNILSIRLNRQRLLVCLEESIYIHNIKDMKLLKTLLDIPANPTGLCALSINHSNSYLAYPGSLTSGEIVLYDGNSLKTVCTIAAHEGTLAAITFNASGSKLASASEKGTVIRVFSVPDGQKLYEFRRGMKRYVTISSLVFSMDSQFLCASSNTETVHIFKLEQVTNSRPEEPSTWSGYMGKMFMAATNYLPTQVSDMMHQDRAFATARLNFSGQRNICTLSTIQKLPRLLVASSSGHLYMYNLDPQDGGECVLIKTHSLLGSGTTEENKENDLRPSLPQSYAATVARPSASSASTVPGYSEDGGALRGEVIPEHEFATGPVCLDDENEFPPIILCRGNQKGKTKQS
The experiment in a line: co-IP; GFP- and myc-tagged WIPI variants co-expressed (Supplementary Fig. 3a,b); which antibody precipitated is not shown.

Test [9] has as its target T1, GFP-WIPI4 (human). The description is as above.
Test [10] concerns the target myc-ATG2A (UniProt Q2TAZ0). The experiment in a line: co-IP; U2OS transiently expressing GFP-tagged WIPI proteins and myc-ATG2A, starved; anti-myc immunoprecipitation, anti-GFP immunoblotting.

On to Myc-AMPKγ1 (from UniProt P54619 1-331), for which the binding entry in [1] is listed as “binds”.
As to “endogenous FIP200 (MEFs) (from UniProt Q9ESK9 1-1588)”, the binding entry in test [2] is reported as “binds”.
Regarding “endogenous TSC2 (MEFs) (from UniProt Q61037 1-1814)”, in test [3], the binding entry is “binds”.
Take myc-ATG2A (from UniProt Q2TAZ0 1-1938): the binding result in test [4], in test [5] and in test [6] was “binds” each time.

B1: endogenous TSC1 (protein, UniProt Q92574 1-1164)
chain: MAQQANVGELLAMLDSPMLGVRDDVTAVFKENLNSDRGPMLVNTLVDYYLETSSQPALHILTTLQEPHDKHLLDRINEYVGKAATRLSILSLLGHVIRLQPSWKHKLSQAPLLPSLLKCLKMDTDVVVLTTGVLVLITMLPMIPQSGKQHLLDFFDIFGRLSSWCLKKPGHVAEVYLVHLHASVYALFHRLYGMYPCNFVSFLRSHYSMKENLETFEEVVKPMMEHVRIHPELVTGSKDHELDPRRWKRLETHDVVIECAKISLDPTEASYEDGYSVSHQISARFPHRSADVTTSPYADTQNSYGCATSTPYSTSRLMLLNMPGQLPQTLSSPSTRLITEPPQATLWSPSMVCGMTTPPTSPGNVPPDLSHPYSKVFGTTAGGKGTPLGTPATSPPPAPLCHSDDYVHISLPQATVTPPRKEERMDSARPCLHRQHHLLNDRGSEEPPGSKGSVTLSDLPGFLGDLASEEDSIEKDKEEAAISRELSEITTAEAEPVVPRGGFDSPFYRDSLPGSQRKTHSAASSSQGASVNPEPLHSSLDKLGPDTPKQAFTPIDLPCGSADESPAGDRECQTSLETSIFTPSPCKIPPPTRVGFGSGQPPPYDHLFEVALPKTAHHFVIRKTEELLKKAKGNTEEDGVPSTSPMEVLDRLIQQGADAHSKELNKLPLPSKSVDWTHFGGSPPSDEIRTLRDQLLLLHNQLLYERFKRQQHALRNRRLLRKVIKAAALEEHNAAMKDQLKLQEKDIQMWKVSLQKEQARYNQLQEQRDTMVTKLHSQIRQLQHDREEFYNQSQELQTKLEDCRNMIAELRIELKKANNKVCHTELLLSQVSQKLSNSESVQQQMEFLNRQLLVLGEVNELYLEQLQNKHSDTTKEVEMMKAAYRKELEKNRSHVLQQTQRLDTSQKRILELESHLAKKDHLLLEQKKYLEDVKLQARGQLQAAESRYEAQKRITQVFELEILDLYGRLEKDGLLKKLEEEKAEAAEAAEERLDCCNDGCSDSMVGHNEEASGHNGETKTPRPSSARGSSGSRGGGGSSSSSSELSTPEKPPHQRAGPFSSRWETTMGEASASIPTTVGSLPSSKSFLGMKARELFRNKSESQCDEDGMTSSLSESLKTELGKDLGVEAKIPLNLDGPHPSPPTPDSVGQLHIMDYNETHHEHS
In the case of B1, the binding entry in test [7] is “binds”.

B2: endogenous TSC1 (MEFs) (protein, UniProt Q9EP53 1-1161)
chain: MAQLANIGELLSMLDSSTLGVRDDVTAIFKESLNSERGPMLVNTLVDYYLETNSQPVLHILTTLQEPHDKHLLDKINEYVGKAATRLSILSLLGHVVRLQPSWKHKLSQAPLLPSLLKCLKMDTDVVVLTTGVLVLITMLPMIPQSGKQHLLDFFDIFGRLSSWCLKKPGHVTEVYLVHLHASVYALFHRLYGMYPCNFVSFLRSHYSMKENVETFEEVVKPMMEHVRIHPELVTGSKDHELDPRRWKTLETHDVVIECAKISLDPTEASYEDGYSVSHQLSACFPYRSADVTTSPYVDTQNSYGGSTSTPSSSSRLMLFSPPGQLPQSLSSPSTRLLPEPLQASLWSPSAVCGMTTPPTSPGNVPADLSHPYSKAFGTTAGGKGTPSGTPATSPPPAPPCPQDDCVHGSAAQASATAPRKEERADSSRPYLHRQSNDRGLEDPPGSKGSVTLRNLPDFLGDLASEEDSIEKDKEEAAISKELSEITTAEADPVVPRGGFDSPFYRDSLSGSQRKTHSAASGTQGSSVNPEPLHSSLDKHGPDTPKQAFTPIDPPSGSADVSPAGDRDRQTSLETSILTPSPCKIPPQRGVSFGSGQLPPYDHLFEVALPKTACHFVSKKTEELLKKVKGNPEEDCVPSTSPMEVLDRLIEQGAGAHSKELSRLSLPSKSVDWTHFGGSPPSDELRTLRDQLLLLHNQLLYERFKRQQHALRNRRLLRKVIRAAALEEHNAAMKDQLKLQEKDIQMWKVSLQKEQARYSQLQEQRDTMVTQLHSQIRQLQHDREEFYNQSQELQTKLEDCRNMIAELRVELKKANNKVCHTELLLSQVSQKLSNSESVQQQMEFLNRQLLVLGEVNELYLEQLQSKHPDTTKEVEMMKTAYRKELEKNRSHLLQQNQRLDASQRRVLELESLLAKKDHLLLEQKKYLEDVKSQASGQLLAAESRYEAQRKITRVLELEILDLYGRLEKDGRLRKLEEDRAEAAEAAEERLDCCSDGCTDSLVGHNEEASGHNGETRTSRPGGTRASCGGRVTGGSSSSSSELSTPEKPPSQRFSSRWEPALGEPSSSIPTTVGSLPSSKSFLGMKARELFRNKSESQCDEDSVTMSSSSLSETLKTELGKDSGTENKTSLSLDAPHPSSPNSDNVGQLHIMDYNETHPEHS
For B2, the binding entry in test [3] was “binds”.

B3: myc-WIPI2D (protein, UniProt Q9Y4P8-2 1-425)
chain: MNLASQSGEAGAGQLLFANFNQDNTSLAVGSKSGYKFFSLSSVDKLEQIYECTDTEDVCIVERLFSSSLVAIVSLKAPRKLKVCHFKKGTEICNYSYSNTILAVKLNRQRLIVCLEESLYIHNIRDMKVLHTIRETPPNPAGLCALSINNDNCYLAYPGSATIGEVQVFDTINLRAANMIPAHDSPLAALAFDASGTKLATASEKGTVIRVFSIPEGQKLFEFRRGVKRCVSICSLAFSMDGMFLSASSNTETVHIFKLETVKEKPPEEPTTWTGYFGKVLMASTSYLPSQVTEMFNQGRAFATVRLPFCGHKNICSLATIQKIPRLLVGAADGYLYMYNLDPQEGGECALMKQHRLDGSLETTNEILDSASHDCPLVTQTYGAAAGKAYTDDLGAVGGACLEDEASALRLDEDSEHPPMILRTD
As to B3, the binding entry in test [8] and in test [9] was “binds” each time.

B4: GFP-WIPI4 (protein, UniProt Q9Y484 1-360)
chain: MTQQPLRGVTSLRFNQDQSCFCCAMETGVRIYNVEPLMEKGHLDHEQVGSMGLVEMLHRSNLLALVGGGSSPKFSEISVLIWDDAREGKDSKEKLVLEFTFTKPVLSVRMRHDKIVIVLKNRIYVYSFPDNPRKLFEFDTRDNPKGLCDLCPSLEKQLLVFPGHKCGSLQLVDLASTKPGTSSAPFTINAHQSDIACVSLNQPGTVVASASQKGTLIRLFDTQSKEKLVELRRGTDPATLYCINFSHDSSFLCASSDKGTVHIFALKDTRLNRRSALARVGKVGPMIGQYVDSQWSLASFTVPAESACICAFGRNTSKNVNSVIAICVDGTFHKYVFTPDGNCNREAFDVYLDICDDDDF
B4: the binding entry in [10] was “binds”.
